Data reported in PubChem BioAssay AID1487 (National Center for Advancing Translational Sciences (NCATS), 2009).
About 25 (0.01%) of roughly 200,000 compounds were called active. Roughly 23% stayed inconclusive and do not appear here. Calls follow the shape of the dose curve; as a rule, active = well fitted inhibition curve with a large enough effect in the signal ratio, with a control signal flat (not every such curve was filed as active); inconclusive = small, poorly fitted or top-dose-only effect, or effect the other way, or a change in a side signal; inactive = flat fitted curve, though single readings scatter; the % refers to the signal ratio. Only a part is listed here, and it is no random draw.

Test: qHTS Assay for Modulators of Lamin A Splicing
Conditions: HeLa LMNA splicing GFP/RFP minigene ratio, 48 h; series mostly up to 46.1 µM; ratio change, negative = inhibition: at the top concentration
Excerpt: NCGC Assay Overview: Hutchinson-Gilford Progeria Syndrome (HGPS) is a pediatric premature aging disease caused by a spontaneous mutation in the lamin A/C (LMNA) gene. The mutation activates a cryptic splice site in the LMNA pre-mRNA which results in production of a pre-lamin A protein that cannot be processed properly. The mutant protein accumulates in the nucleus and negatively affects numerous cellular functions. Correction of the splicing defect in HGPS patient cells using a targeted oligonucleotide (exo11) leads to reversal of the cellular disease phenotypes. To identify small molecule modulators of aberrant LMNA splicing, a homogenous assay was constructed in HeLa cells that used a GFP containing minigene to report on correction of aberrant splicing in lamin A and a RFP (DsRed2) to report on cell viability, uniformity and nonspecific effects on the assay signal. This assay was adapted to laser-scanning microplate cytometry (Acumen, TTP Labtech) where miniaturization of the assay to a 1,536-well plate format was possible. References: Bowen, W. P.; Wylie, P. G. Application of Laser-Scanning Fluorescence Microplate Cytometry in High Content Screening. Assay Drug Dev Technol 2006;4:209-221. Scaffidi P, Misteli T. Reversal of the cellular phenotype in the premature aging disease Hutchinson-Gilford progeria syndrome. Nat.
NCGC Assay Protocol Summary: Reagents/Controls: Stable clones expressing DsRed2 and lamin A-EGFP were generated by Cell and Molecular Technologies in S3 HeLa cells. HeLa cells were prepared for the assay when they were 70-90% confluent. The cells were counted and resuspended in Opti-MEM I (no phenol red; Gibco), 2% FBS, 1% penicillin/ streptomycin (Gibco) at concentration of 120 cells/uL concentration. The suspension was passed through a Falcon basket filter with pore size 40um (Beckton Dickson). Control titrations: column […] 1536-well plate contained a sixteen point titration (1:2 dilutions) in duplicate of ancitabine (Sigma: A8598) beginning at 40 uM final concentration. Column 2 contained a sixteen point titration (1:2 dilutions) of cycloheximide beginning at 1.4 mM final concentration. Column 3 contained ancitabine at 40 uM and column 4 contained was the vehicle control (0.5% DMSO final concentration). Assay Steps: 5 uL of HeLa cells were plated in Aurora LoBase black clear bottom (cyclic-olefin polymer) 1536-well plates at a final density of 600 cells/well. Controls and library compounds were added with a 1536-well pin array using the Kalypsys pin-tool. The plates were then incubated for 48 hrs in a cell-culture incubator (37 °C; 5% CO2, 98% humidity). Following incubation the plates were read on the Acumen Explorer using the 488 nm laser. Data was collected on objects between 10 and 100 um in size. Cell objects were defined by a 15 um width x 10 um depth filter. The ratio of the total object intensity in PMT1 (500-530 nm emission; GFP) over PMT3 (575-640 nm emission; RFP) was calculated for analysis. Keywords: NIH Roadmap, MLSCN, MLI, MLSMR, qHTS, NCGC, lamin A, Progeria, RNA splicing.
% is scaled to controls: 0 for no effect and ±100 for the full control effect; potency is read from the fitted curve at half-maximal effect.

Row | Compound | ratio change, negative = inhibition | Potency
1 | CCN(CC)C(=O)N[C@H]1C[C@@H]2c3cccc4[nH]cc(c34)C[C@H]2N(C)C1 | inactive: -0.865% | –
2 | CC[N+]1(C)CCCC(OC(=O)C(O)(c2ccccc2)c2ccccc2)C1 (stereo not drawn) | inactive: 2.04% | –
3 | CCN(CC)C(=O)N[C@@H]1C[C@@H]2c3cccc4[nH]cc(c34)C[C@H]2N(C)C1 | inactive: -16.2% | –
4 | C=CCN1CCC23c4c5ccc(O)c4O[C@H]2C(=O)CC[C@@]3(O)C1C5 (stereo partly drawn) | inactive: -27.3% | –
5 | C[N+](C)(C)CCCCCCCCCC[N+](C)(C)C | – | inactive
6 | CC(CCc1ccccc1)NC(C)C(O)c1ccc(O)cc1 (stereo not drawn) | – | inactive
7 | C[N+]1([O-])[C@@H]2CC(OC(=O)[C@@H](CO)c3ccccc3)C[C@@H]1[C@H]1O[C@H]12 (stereo partly drawn) | inactive: 9.7% | –
8 | CC[C@H]1C(=O)OC[C@H]1Cc1cncn1C | inactive: -8.23% | –
9 | CC(C)Nc1ccc(Nc2ccccc2)cc1 | – | active: 1.41 µM
10 | CNC(=O)Oc1ccc2c(c1)[C@@]1(C)CCN(C)[C@@H]1N2C | inactive: 7.31% | –
11 | CC(C(=O)O)c1ccc(-c2ccccc2)c(F)c1 (stereo not drawn) | – | inactive
12 | Nc1ccncc1 | inactive: -5.43% | –
13 | Cc1cc(C)cc(N2C(=O)NC(=O)/C(=C\c3cccn3-c3ccc(Cl)cc3)C2=O)c1 | inactive: -0.698% | –
14 | CC(N)[C@H](O)c1ccccc1 (stereo partly drawn) | inactive: -5.68% | –
15 | CC(=O)[C@]1(O)CCC2C3CCC4=CC(=O)CC[C@@]4(C)C3CC[C@]21C (stereo partly drawn) | inactive: -5.42% | –
16 | COP(=O)(OC)[C@@H](O)C(Cl)(Cl)Cl | inactive: 4.46% | –
17 | O=c1[nH]c2ccccc2n1CCCN1CCC(n2c(=O)[nH]c3cc(Cl)ccc32)CC1 | inactive: -21.2% | –
18 | CC(C)[N+](C)(CCC(C(N)=O)(c1ccccc1)c1ccccc1)C(C)C | inactive: 9.4% [at 46 µM] | –
19 | CN1C[C@H](CNC(=O)OCc2ccccc2)C[C@H]2c3cccc4c3c(cn4C)C[C@@H]21 | inactive: -22.5% | –
20 | O=[N+]([O-])c1ccc(C2[C@H]3C(c4ccccc4)=NC4(CCCC4)N23)cc1 (stereo partly drawn) | inactive: -9.03% | –
21 | Cc1ccc(O)c(C(CCN(C(C)C)C(C)C)c2ccccc2)c1 (stereo not drawn) | inactive: -3.41% | –
22 | NC(N)=NOCC[C@H](N)C(=O)O | – | inactive
23 | CC[C@@H]1C(=O)OC[C@@H]1Cc1cncn1C | – | inactive
24 | Clc1cnc(Oc2ccc(Oc3ncc(Cl)cc3Cl)cc2)c(Cl)c1 | inactive: 2.8% | –
25 | CN1[C@@H]2CC(OC(=O)[C@H](CO)c3ccccc3)C[C@H]1[C@@H]1O[C@@H]12 (stereo partly drawn) | – | inactive
26 | CN1CCC23CCCC[C@H]2C1Cc1ccc(O)cc13 (stereo partly drawn) | inactive: -25.9% | –
27 | C[C@]12CC[C@@H](O)C[C@@H]1CC[C@@H]1[C@@H]2CC[C@]2(C)C(=O)CC[C@@H]12 | inactive: 2.61% [at 46 µM] | –

Row | Compound | ratio change, negative = inhibition | Potency
28 | CC1=CC(=O)C2=C(C)CC(O)C3C(C)C(=O)OC3C12 (stereo not drawn) | inactive: 3.81% | –
29 | CNC(=O)Oc1ccc2c(c1)[C@@]1(C)CCN(C)C1N2C (stereo partly drawn) | inactive: -13.7% | –
30 | C[C@]12CC[C@@H](O)CC1CCC1C2CC[C@]2(C)C(=O)CC[C@@H]12 (stereo partly drawn) | inactive: -20.5% | –
31 | CN[C@@H]1C[C@@H](c2ccc(Cl)c(Cl)c2)c2ccccc21 | inactive: -28.6% [at 46 µM] | –
32 | NC1CC1c1ccccc1 (stereo not drawn) | inactive: -29.3% | –
33 | COc1cc(C[C@@H](C)N)c(OC)cc1I | inactive: -19.1% | –
34 | CNCC[C@H](Oc1ccc(C(F)(F)F)cc1)c1ccccc1 | inactive: -3.28% | –
35 | C[N+]12CCC(CC1)C(OC(=O)C(O)(c1ccccc1)c1ccccc1)C2 (stereo not drawn) | inactive: -0.312% | –
36 | Cn1nc(-c2ccc(OCC(=O)N3CCN(Cc4ccccc4)CC3)cc2)c2ccccc2c1=O | inactive: 0.33% | –
37 | COc1cc(CNC(=O)CCCC/C=C\C(C)C)ccc1O | – | inactive
38 | CN=C(NC#N)NCCSCc1nc[nH]c1C | – | inactive
39 | CCC(COC(=O)c1cc(OC)c(OC)c(OC)c1)(c1ccccc1)N(C)C (stereo not drawn) | inactive: 7.03% | –
40 | Oc1ccc2c3c1OC1C(O)CC[C@@]4(O)[C@@H](C2)N(CC2CCC2)CC[C@]314 (stereo partly drawn) | inactive: 7.1% [at 46 µM] | –
41 | CN1C2CCC1CC(OC(c1ccccc1)c1ccccc1N)C2 (stereo not drawn) | inactive: -14.5% | –
42 | Cc1cccc(C)c1NC1=NCCCS1 | inactive: -4.98% | –
43 | CC12CCC(=O)C=C1CCC1C2CCC2(C)C(O)CCC12 (stereo not drawn) | inactive: -0.459% | –
44 | NC(N)=NS(=O)(=O)c1ccc(N)cc1 | inactive: -7.1% | –
45 | CN1C(CC(=O)c2ccccc2)CCCC1CC(O)c1ccccc1 (stereo not drawn) | inactive: -5.82% | –
46 | CCCN(CCC)C1CCc2cccc(O)c2C1 (stereo not drawn) | inactive: -9.09% | –
47 | Nc1nc2ccc(Cl)cc2c2nc(-c3ccco3)nn12 | inactive: 4.4% [at 46 µM] | –
48 | CN(C)C(=O)Oc1cc(OC(=O)N(C)C)cc(C(O)CNC(C)(C)C)c1 (stereo not drawn) | inactive: -2.02% | –
49 | COc1ccc2c3c([nH]c2c1)C(C)=NCC3 | inactive: -16.3% | –
50 | C[C@@]12CCC3C(CC[C@@H]4CC(O)CC[C@@]34C)C1CCC2O (stereo partly drawn) | inactive: -10.4% | –
51 | CC(COc1ccccc1)N(CCCl)Cc1ccccc1 (stereo not drawn) | inactive: -8.36% | –
52 | COc1cc2c(cc1OC)[C@@]13CCN4CC5=CCO[C@H]6CC(=O)N2[C@H]1[C@H]6[C@H]5C[C@H]43 | inactive: -2.11% | –
53 | C[C@H]1CC[C@@H]2[C@@H](C)[C@H]3[C@H](C[C@H]4[C@@H]5CC=C6C[C@@H](O[C@@H]7O[C@H](CO)[C@H](O)[C@H](O[C@@H]8O[C@H](CO)[C@@H](O)[C@H](O)[C@H]8O)[C@H]7O[C@@H]7O[C@@H](C)[C@H](O)[C@@H](O)[C@H]7O)CC[C@]6(C)[C@H]5CC[C@]34C)N2C1 | inactive: -3.1% | –
